The results in this text go back to PubChem BioAssay AID488969 (Vanderbilt High Throughput Screening Facility, 2010).

The full ranking holds about 110,000 compounds; the median of “z-score” is about -0.1, and the highest 2% start at about 2. The list shows a part of the results. Active and inactive are the calls of the source.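 How the source made its calls: active means z-score in the third read window above 3 or below -3; inactive means the rest.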

In this test the target is Metabotropic glutamate receptor 8 (Rattus norvegicus) (UniProt P70579). Put plainly: rat mGluR8 modulators via GIRK flux, primary screen, cell-based, thallium flux, HTS (AID 488969). To be noted: HEK293 rat mGluR8, GIRK (G protein-gated inwardly rectifying potassium channel) thallium flux, FluoZin2; at 10 µM; stronger effect = higher value; submaximal glutamate (EC20) added with thallium.
Chain of UniProt P70579 (P70579 whole entry, looked up): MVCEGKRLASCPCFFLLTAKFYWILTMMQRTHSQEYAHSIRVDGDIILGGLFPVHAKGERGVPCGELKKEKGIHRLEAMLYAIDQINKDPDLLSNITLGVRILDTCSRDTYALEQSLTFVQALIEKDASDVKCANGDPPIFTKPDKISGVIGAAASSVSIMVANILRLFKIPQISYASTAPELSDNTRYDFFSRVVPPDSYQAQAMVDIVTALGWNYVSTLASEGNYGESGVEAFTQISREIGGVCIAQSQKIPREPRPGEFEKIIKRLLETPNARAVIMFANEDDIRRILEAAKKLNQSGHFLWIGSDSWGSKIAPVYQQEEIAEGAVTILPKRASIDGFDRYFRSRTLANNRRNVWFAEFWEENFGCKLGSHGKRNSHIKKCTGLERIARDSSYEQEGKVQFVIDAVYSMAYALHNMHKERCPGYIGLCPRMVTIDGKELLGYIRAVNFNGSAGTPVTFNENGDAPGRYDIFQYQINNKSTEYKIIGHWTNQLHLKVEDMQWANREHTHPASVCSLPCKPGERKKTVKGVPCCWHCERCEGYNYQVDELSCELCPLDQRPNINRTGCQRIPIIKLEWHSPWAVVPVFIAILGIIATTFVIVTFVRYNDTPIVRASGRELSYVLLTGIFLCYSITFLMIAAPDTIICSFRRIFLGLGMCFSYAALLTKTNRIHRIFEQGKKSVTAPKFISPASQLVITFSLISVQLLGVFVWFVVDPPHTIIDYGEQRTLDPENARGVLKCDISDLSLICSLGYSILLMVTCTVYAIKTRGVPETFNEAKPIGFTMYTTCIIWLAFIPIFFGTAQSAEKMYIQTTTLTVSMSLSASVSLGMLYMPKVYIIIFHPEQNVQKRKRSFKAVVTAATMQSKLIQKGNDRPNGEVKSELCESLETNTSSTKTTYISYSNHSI
Turning to `CCCCOc1ccc(C(CC(=O)NC)C(=O)O)cc1` (configuration not stated), the z-score was 0.207.

For the compound `O=C(CCc1nc(-c2ccccc2)no1)N1CCCC1`, the z-score is -0.208.

In turn, `CCOc1ccc(CN(C(=O)c2oc3cc(C)ccc3c2C)C2CCS(=O)(=O)C2)cc1` (configuration not stated) had a z-score of -0.0359.

For the compound `Cc1ccc(C)c(SCC(=O)OCC(=O)Nc2ncc(C(F)(F)F)cc2Cl)c1`, the z-score is -0.117.

The compound `Cc1cc(C)cc(NC(=O)c2ccc(CSc3nnc(C)s3)cc2)c1` showed a z-score of -0.4.

`CC(C)CC(=O)NC(=S)NCCc1ccccc1` came in with a z-score of 0.38.

In turn, `Cc1ccccc1CN1C(=O)Nc2ccccc2C(=O)N1C(C)(C)C` came in with a z-score of -0.18.

The compound `CCCCCOP(=O)(OCCCCC)C1(NS(=O)(=O)c2ccccc2)C=CC(=O)c2ccccc21` (configuration not stated) gave a z-score of -0.189.

With `CCCN1C(=O)C(Cc2nc3ccccc3c(=O)n2-c2ccccc2)c2ccccc21` (configuration not stated), the z-score was -1.6.

In the case of `CC(=O)CC(=O)NC(=NC1CCCCC1)Nc1nc(C)cc(C)n1`, the z-score was -0.399.

As to `CC1CN(Cc2nc3c(c(=O)n(C)c(=O)n3C)n2CC(O)CO)CC(C)O1` (configuration not stated), the z-score was determined as 0.278.

The compound `COc1ccc(/C=N/NC(=O)c2cc(-c3ccc4c(c3)OCO4)n[nH]2)cc1OC` returned a z-score of -0.211.

On to `CN(C(=O)CSC1=NCCS1)c1ccccc1`, for which the z-score was 0.0673.

`O=C(COC(=O)CNS(=O)(=O)/C=C/c1ccccc1)NC1CCS(=O)(=O)C1` (configuration not stated): the z-score is 0.581.

With `C=CCc1cccc(OC)c1OCCOCCn1ccnc1`, the z-score is -0.0997.

For `O=S(=O)(NCCNS(=O)(=O)c1ccccc1)c1ccccc1`, the z-score was determined as 0.165.

`O=C(c1c(F)cccc1F)N1CCN(c2ccccc2F)CC1`: the z-score was -0.129.

The compound `Cc1nn(Cc2c(Cl)cccc2Cl)c(C)c1C(=O)NCc1ccc(C)n1C` showed a z-score of 1.8.

Compound `Cc1cc(NC(=O)CSc2ncnc3ccccc23)no1` showed a z-score of -0.281.

In turn, `CC(=O)NC(Cc1ccc(F)cc1)C(=O)O` (configuration not stated) returned a z-score of -0.146.

In the case of `CCCCCC(=O)Nc1sc(C)c(C)c1C#N`, the z-score worked out at 0.0905.

Take `O=S(=O)(c1ccccc1)N(Cc1ccccc1)c1ccccn1`: the z-score is -1.1.

The compound `O=C(O)c1ccc(SCc2cnc(Cl)s2)cc1` came in with a z-score of 0.374.

As for `CCOC(=O)c1cc([N+](=O)[O-])sc1NC(=O)c1ccc(S(=O)(=O)N2CC3(C)CC2CC(C)(C)C3)cc1` (configuration not stated), the z-score is 0.0528.

The compound `Cc1ccc(S(=O)(=O)Cc2ccc(C(=O)N3CCN(c4ccc(F)cc4)CC3)o2)cc1` registered a z-score of -0.278.

In the case of `Cc1ccc(/C(N)=N/OC(=O)CCC2CCCCC2)cc1`, the z-score was found to be 0.178.

`Cc1nn(CC(=O)Nc2ccc3c(c2)nc2n3CCOC2)c(=O)c2ccccc12` had a z-score of -0.0988.

With `COC(=O)c1ccc(COc2ccccc2/C=C(\C#N)C(=O)Nc2ccc(C)cc2)cc1`, the z-score was -0.0714.

Turning to `COc1ccc(CNc2ncnc3cc(OC)c(OC)cc23)cc1`, the z-score is -0.0976.

`O=C(CCc1ccc(S(=O)(=O)N2CCOCC2)cc1)NN=C1CCCCCCC1`: the z-score was -0.592.

In turn, `O=C(c1cccc(S(=O)(=O)N2CCOCC2)c1)N(CCO)Cc1ccccc1` showed a z-score of -0.0818.

`COc1cc(N/C(=N/S(=O)(=O)c2ccccc2)c2ccccc2)ncn1` returned a z-score of 0.0664.

`COc1ccc(C(=O)NNC(=O)Cc2ccc([N+](=O)[O-])cc2)cc1` yielded a z-score of -0.0669.

For `O=C(Nc1nnc(-c2ccccc2)o1)c1cc(Cl)sc1Cl`, the z-score is active: 11.3.

Consider `Cc1c(-c2ccccc2)[n+](=O)c2c(n1[O-])CCC2`, for which the z-score is 0.748.

As for `O=C(CN1C(=O)/C(=C/c2ccccc2)SC1=S)Nc1ncc(Cc2ccccc2)s1`, the z-score is -0.034.

`CCOc1ccc(-n2c(SCC(=O)Nc3cc(OC)c([N+](=O)[O-])cc3C)nc3ccccc32)cc1` showed a z-score of 0.119.

In turn, `CN(C)c1ccc(N=C/C=C2\N(C)c3ccccc3C2(C)C)cc1` displayed a z-score of 0.852.

Compound `C=CCn1c(CNc2ccccc2)nnc1SCC(=O)N/N=C/c1ccc(O)cc1O` returned a z-score of 0.0495.

For the compound `CN(C)CCCOC(=O)c1ccc(Cl)cc1Cl`, the z-score was found to be 0.77.

Consider `Cc1cc2ccccn2c1C(=O)c1nc(N2CCOCC2)ncc1Cl`, for which the z-score was -0.524.

In the case of `Cc1ccc(-c2nnc(SCC(=O)N3CCCC3)o2)cc1`, the z-score was 0.23.

As for `COc1ccc(S(=O)(=O)Cc2ccc(C(=O)NCc3cccnc3)o2)cc1`, the z-score is -0.0868.

For the compound `COc1cc2c(cc1O)C(SC)=NC(C)(C)C2`, the z-score is -0.125.

For `COc1cc(C(=O)NCc2ccc(-c3nc4ccccc4o3)cc2)cc(OC)c1OC`, the z-score is -0.0933.

Turning to `O=C(CO/N=C/c1ccc(OC(F)F)cc1)NCc1cccs1`, the z-score was -0.349.

In the case of `Cc1ccsc1/C=N\NC(=O)c1n[nH]c2c1CCC2`, the z-score stood at 1.75.

Compound `COC(=O)c1sccc1NC(=O)c1ccc(OC)cc1` displayed a z-score of 0.426.

In the case of `CC1Cc2ccccc2N1C(=O)COC(=O)Cn1nnc(-c2ccccc2)n1` (configuration not stated), the z-score was -0.414.

In turn, `COC(=O)c1sccc1NC(=S)N1CCN(c2ccccc2)CC1` registered a z-score of -0.397.

Regarding `Cc1cccc(C)c1NC(=O)C(=O)NCCCN1CCOCC1`, the z-score is -0.137.

For `COc1ccc(N(CC(=O)Nc2nccs2)S(=O)(=O)c2c(C)nn(C)c2C)cc1`, the z-score came out at 0.0495.

Compound `CCOc1ccccc1NS(=O)(=O)c1ccc(Br)s1` gave a z-score of 0.608.

With `Cc1ccc(NC(=O)CSCC#N)cc1Cl`, the z-score was -0.0832.

`CC(C)NC(=O)C1CC(=O)N(C(C)c2ccccc2)C1` (configuration not stated) showed a z-score of -0.27.

`O=C(C1CCCN(Cc2cccc(F)c2)C1)N1CCCCC1` (configuration not stated) registered a z-score of 0.347.

As for `CCn1c(SCC(=O)c2cc(C)n(C)c2C)nnc1-c1ccccc1`, the z-score amounted to 0.0656.

Turning to `Cc1ccccc1NS(=O)(=O)c1ccc(OCC(=O)N2CCCCC2)cc1`, the z-score is 0.204.

Take `S=C(Nc1ccc(Cl)c(Cl)c1)NC1CCCCC1`: the z-score came to 0.535.

The compound `Cc1ccccc1NN=Nc1nc2c([nH]1)c(=O)n(C)c(=O)n2C` registered a z-score of -0.189.

In turn, `COc1ccc(N2CCN(Cc3nc4scc(-c5ccccc5)c4c(=O)[nH]3)CC2)cc1` yielded a z-score of -0.00785.

Compound `CCCCn1c(=O)c(CCC(=O)OCC(=O)Nc2ccc(F)c(Cl)c2)nc2ccccc21` came in with a z-score of -1.78.

`CCCCC(c1nnnn1C1CCCC1)N1CCN(C2CCCCC2)CC1` (configuration not stated): the z-score was -0.391.

The compound `O=Cc1nc(-c2ccc(Cl)cc2)n2ccccc12` had a z-score of -0.252.

For the compound `O=C(NCc1ccco1)C1CCCN(S(=O)(=O)c2cccc3cccnc23)C1` (configuration not stated), the z-score is 1.01.

In turn, `CCC(=O)Oc1ccc2oc(=O)cc(C)c2c1` showed a z-score of -0.156.

On to `COc1ccccc1N=C1SC(C(=O)Nc2ccc(F)cc2)CC(=O)N1C` (configuration not stated), for which the z-score is -0.105.

Regarding `Cc1ccc(/C=C/C(=O)N2CCN(S(=O)(=O)c3c(C)c(C)cc(C)c3C)CC2)o1`, the z-score was 0.442.

`CCC1(CC)Cc2ccccc2C(Nc2c(C)n(C)n(-c3ccccc3)c2=O)=N1` displayed a z-score of -0.52.

With `O=C(OCC(=O)N1CCN(C(=O)c2ccco2)CC1)c1ccccc1O`, the z-score was 0.0231.

`Cc1ccc(CC(=O)Nc2nc3ccccc3s2)cc1` came in with a z-score of -0.00106.

As to `Cc1ccc(-n2c(SCC(=O)Nc3ccc4c5c(cccc35)CC4)nc(O)c(C)c2=O)cc1`, the z-score is -0.384.

In turn, `CCN(C(=O)CN(C)Cc1c(F)cccc1Cl)c1c(N)n(Cc2ccccc2)c(=O)[nH]c1=O` came in with a z-score of -0.186.

For `CC(=O)N1C(=O)C2(Nc3ccccc3N2)c2ccccc21`, the z-score is -0.647.

Regarding `O=S(=O)(Nc1cccnc1)c1ccc2c(c1)OCCO2`, the z-score was -0.833.

In turn, `Cc1cccnc1NC(=O)COc1ccc2oc3c(c2c1)CCCC3` gave a z-score of 0.188.

On to `Cc1c(-c2nnc(-c3ccc(C(F)(F)F)cc3)o2)cnn1-c1ccccc1`, for which the z-score is -0.209.

Compound `O=C(CCCN1C(=O)c2ccccc2C1=O)Nc1nccs1` yielded a z-score of -0.252.

As to `C/C(=N\O)c1ccc(N2C(=O)C3CC=C(Cl)CC3C2=O)cc1` (configuration not stated), the z-score was -0.163.

Compound `O=C(CC(=O)NN=C1CCCC1)NCCc1ccccc1` showed a z-score of -0.161.

Turning to `Cc1ccc(C(=O)NC(C)c2ccccc2)o1` (configuration not stated), the z-score was -0.0546.

Consider `CCCCNC(=S)NC(=O)c1ccc([N+](=O)[O-])cc1`, for which the z-score was active: 7.01.

The compound `COc1cccc(OC)c1C(=O)NC(=S)Nc1cc(-c2nc3ccccc3[nH]2)ccc1Cl` came in with a z-score of -0.117.

With `O=C(O)CCc1ccc(-c2ccc(Cl)cc2)n1CC(=O)O`, the z-score was -0.246.

`C/C(Cn1nnc([N+](=O)[O-])n1)=N\NC(=O)c1ccc(O)cc1O`: the z-score was -0.179.

`CS(=O)(=O)Nc1ccc(S(=O)(=O)NCCc2ccccc2)cc1`: the z-score turned out to be 0.726.

Regarding `CCC(=O)Nc1cccc(NC(=O)CSc2nnnn2C)c1`, the z-score was -0.103.

Compound `Cc1nc2ncnn2c(C)c1CCC(=O)Nc1ccc(S(=O)(=O)N2CCCCCC2)cc1` registered a z-score of -1.77.

Compound `CSC1=NC2(CC(c3ccccc3)Oc3cc(O)ccc32)CC(C)(C)N1` (configuration not stated) came in with a z-score of 0.359.

With `O=C(COc1cccc(NC(=O)c2cccs2)c1)c1ccc(F)cc1`, the z-score is -0.182.

`c1cc2c3c(cccc3c1)C(N1CCN(C3=Nc4cccc5cccc3c45)CC1)=N2` yielded a z-score of -0.0313.

On to `COc1ccc(S(=O)(=O)Nc2ccccc2OC)cc1NC(=O)CC1CC2CCC1C2` (configuration not stated), for which the z-score is -0.0236.

With `Cc1nnc(SCC(=O)Nc2c(Cl)cccc2Cl)[nH]c1=O`, the z-score is 0.127.

For `O=c1[nH]c(=S)c2c(n1-c1ccccc1)CCC2`, the z-score is -0.521.

For the compound `O=c1cc(CO)oc(CN2CCN(Cc3ccccc3)CC2)c1O`, the z-score is 0.187.

`Cc1cc(OCC(=O)Nc2ccc(S(=O)(=O)N3CCN(C)CC3)cc2)ccc1Cl`: the z-score was found to be 0.553.

As for `CC(=O)c1ccc(OC(=O)C2c3ccccc3Oc3ccccc32)cc1`, the z-score was -0.187.

`O=C(N/N=C\c1ccc(F)cc1)c1csnn1` returned a z-score of -0.00941.

Regarding `CCC(CC)=NNc1cccc([N+](=O)[O-])c1`, the z-score was determined as 0.023.

In turn, `O=C(Nc1ccc([N+](=O)[O-])cc1)/C(=C/c1cccc([N+](=O)[O-])c1)NC(=O)C1CCCCC1` had a z-score of 0.117.

Compound `COc1ccc(S(=O)(=O)NCCc2ccc(F)cc2)cc1` came in with a z-score of -0.512.

Consider `COc1ccc(NC2=NC3(CCCCC3)N=C(N)N2)cc1`, for which the z-score is 0.282.

`O=C1c2ccccc2C(Nc2ccc3c(c2)OCCO3)N1Cc1ccc2c(c1)OCO2` (configuration not stated) gave a z-score of -0.879.

`COc1ccc(-c2nc3ccccc3s2)cc1O` displayed a z-score of -0.728.

The compound `COc1nn(CC(=O)N2N=C(C(F)F)CC2(O)C(F)F)cc1[N+](=O)[O-]` (configuration not stated) had a z-score of -0.324.

As for `COc1cccc(NC(=O)N2CCCC2C(=O)NC(C)C)c1` (configuration not stated), the z-score was -0.0288.

Turning to `CCCS(=O)(=O)N1CCC(C(=O)NC2CCC(C)CC2)CC1` (configuration not stated), the z-score came out at 0.123.

As for `COc1ccc(Cl)cc1N=Cc1c(O)cc(C)oc1=O`, the z-score was -0.363.

`Cc1nn(C)c(C)c1CN(C)C(=O)C1c2ccccc2Oc2ccccc21` displayed a z-score of 0.0898.

As to `Cc1cc(C(=O)OCC(=O)NC(C)C)c(C)o1`, the z-score is -0.115.

`Cn1c(CN2CCOCC2)nnc1SCc1ccccc1` gave a z-score of 0.624.

`Cc1ccc(/C=C/C(=O)Nc2ccccc2C(N)=O)cc1` returned a z-score of -0.124.
